# ± gives the standard deviation of the averaged measurements. The list shows a part of the results.
# System: PfAP2-EXP AP2 domain (GST-tagged)
# Experiment: gcPBM binding intensity (ln(normalized median fluorescence intensity)); higher = stronger DNA binding
# Method in brief: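 Binding intensity is the highest Masliner-normalised natural-log median intensity over replicate spots in either probe orientation. To obtain it, GST-tagged P. falciparum DNA-binding domains made in E. coli were incubated for 1 h on an Agilent 4 × 180k array of primer-extended double-stranded 36-bp intergenic genomic probes plus negative controls. Detection used Alexa488 anti-GST antibody with scanning at 488 nm.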
row,Sequence,gcPBM binding intensity (ln)
1,ATATTAATTCGTTTTGTACACACATAATGAATAATT [CACACA_site8701],8.43 ± 0.24
2,ATAAAAATCATGTTGGTGCGAAATTTTATTATCAGA [GTGCAC_site9735],8.65 ± 0.24
3,AAGGTATGATTAATCACACACATAAATATATATACA [CACACA_site2658],8.71 ± 0.42
4,TTATGTATAAACACACGTACACACACTAAGTATATC [XGTACX_site3254],8.58 ± 0.38
5,ACACATACACATTAGGTGCATATATTTCAATATTAC [GTGCAC_site9423],8.605 ± 0.064
6,TTTAAAAAGATATATACACACATATAAATAAATATA [CACACA_site6436],8.43 ± 0.31
7,ATTATATTTTTAAGTACACACATATATATATATATA [CACACA_site5925],10.2 ± 0.3
8,CCACGTATAATATGTACACACACATATATACAAAAA [CACACA_site8208],8.66 ± 0.34
9,AGCCTCGGGGTCATATATATATATATATATATATAT [CACACA_negctrl_site512],10.2 ± 0.53
10,TATTATTGCATATTTACACACGTACTAATTTAAACA [CACACA_site970],8.79 ± 0.29
11,ATAAAAGGAAGAAAATGTACATATAATTATATGCAT [XGTACX_site8421],8.99 ± 0.29
12,TTGTATATTTTATGTACACACAATAAGTTAATATAA [CACACA_site4655],8.53 ± 0.26
13,TTTTTCTATAAAAAAAAAAAAAAAAAATATATATAT [TGCATGCA_negctrl_site535],9.47 ± 0.14
14,AAAATAATGTATATATGTACATATAAATATATATAT [XGTACX_site8081],9.32
15,TTTTACAAATATAATGGGTGAGCTATCAAAATAAAT [GTGCAC_negctrl_site91],8.73 ± 0.32
16,TGTATACTATTAAATTGTACACATAAGAAATATTAT [XGTACX_site5839],8.61 ± 0.34
17,ATGTTTTTAAAAAATTGTACATAATATTTTTTATAA [XGTACX_site7692],8.39 ± 0.35
18,TATATATATATATATATAATACGAATTTGTAGTACA [TGCATGCA_negctrl_site224],10.2 ± 0.16
19,TTATTTTAATAACCTACACACATTTTGTATATTTTA [CACACA_site4000],8.4 ± 0.42
20,TTATAAATATTCTTGGGTACTTAAGATGATATGTAA [XGTACX_site5496],8.34 ± 0.39
21,AAATGATGGAAAAAATAAATTTTTGTACAAAAATTA [CACACA_negctrl_site814],8.62 ± 0.4
22,ATATATATATTATTTCGTACATAATTATTTGCCTTA [XGTACX_site350],9.54 ± 0.15

row,Sequence,gcPBM binding intensity (ln)
1,TAATAAAATATGTACGTGCACATAATTATACTAAAA,8.745 ± 0.078
2,TGATACTTTTTTTGTAGTACTCCTAAAATTATAAAA [XGTACX_site4340],8.59 ± 0.38
3,TTTTTTTTATTTTAATGTACATTTTTTATTTGTTAT [XGTACX_site7189],8.69 ± 0.59
4,AAAAAAAAAAAAGAAACACACATATTTATATTTATA [CACACA_site6213],8.25 ± 0.37
5,AAAAAAAAAAAAAATTGTACAAAAAAAATAAATAAA [XGTACX_site6816],8.44 ± 0.63
6,ATTATGCTACAAGGAGAACACACAATTGCCACTTTT [CACACA_site8673],8.63 ± 0.54
7,ACATATATATATATATATATATATATATAATATTTA [CACACA_negctrl_site633],8.73 ± 0.028
8,TTTTTTTTGTGGTGTCGTACATATGTTTGTTTTAAG [XGTACX_site1759],8.91 ± 0.57
9,CCACGAGAATATATAGTGCATAATAATTTTTTTTTG,8.56 ± 0.33
10,GGTGATAATAAGCATACACACACACCCAAAAAAAAA [CACACA_site8137],8.61 ± 0.42
11,AAAAAAAAAAAGAAAGCACACAATACATATGTATAA [CACACA_site1137],8.45 ± 0.47
12,TAAATTTTTAAATACACACATACACCCATACAGACA [CACACA_site548],9.04 ± 0.45
13,ATATATATCAGACACACACACATGTTTTAAAACTAT [CACACA_site77],9.04 ± 0.56
14,CATATAAAAATATATGCACACAAATAAAAAATTATA [CACACA_site9210],8.39 ± 0.28
15,ATATTTAAATAATATTCACACACAAAATTATATTTT [CACACA_site7955],8.42 ± 0.4
16,ATTTCTCAATCGTAATGTACAAAAAAAAGGGAAAAG [XGTACX_site2781],8.75 ± 0.55
17,ACAAACAAAGAAAGAACACACATACACAATATACCT [CACACA_site5566],8.75 ± 0.59
18,ATAAATATAATAATCATACACACCAAAGAGAATATT [CACACA_site1888],8.66 ± 0.52
19,AAAGTTATTATGCAATAATTATGATAATTAATATAT [TGCATGCA_negctrl_site316],8.64 ± 0.56
20,ATGACTTACATATATAGTACTTTGTTTTGGAGTTGC [XGTACX_site94],8.64 ± 0.42
21,TATGAGGAAACGTGGTGTACTTTTTTTTAATAAAAA [XGTACX_site1351],8.37 ± 0.26
22,AAAAAAAAAAAGTTTACACACATTAATTTTACATAT [CACACA_site834],8.12 ± 0.43

row,Sequence,gcPBM binding intensity (ln)
1,AAAAAAATACCATTCACACATATTCTTTTATTATTT [CACACA_site5113],8.48 ± 0.28
2,GTAGCAATAAACATATGTACATATATATATTTTTTC [XGTACX_site5814],8.66 ± 0.4
3,TAATAATACCCTTGCTGTACCAAATAAAGTTGAATA [XGTACX_site6922],8.36 ± 0.35
4,AAATCAACGATCTATACATGCATATAATATATACAT [TGCATGCA_site25],8.67 ± 0.21
5,ATTAAAAAGACAAAAAAAAAATTTTTTTTTTTTTTT [CACACA_negctrl_site1027],8.32 ± 0.26
6,TTTCATAACAAAAAAGTGCAAAATAGCACGAACATT [GTGCAC_site9703],9.07 ± 0.29
7,AAAAATTATATACATCATAGAATTAACATTTTAAAT [GTGCAC_negctrl_site369],8.11 ± 0.33
8,AGAAAAAGGAGAAAAAGTACAAAACGGAGTAGTATT [XGTACX_site3858],9.06 ± 0.54
9,ATGGCCACTGTGAAATGTACAAAAAAAAAATACAAT [XGTACX_site2874],8.86 ± 0.6
10,TATGTATATATATATATATATATATATATATATATA [TGCATGCA_negctrl_site491],10.1 ± 0.66
11,AGTAGTCTGGAGAAAAGTACATAGTATCTGGTAACC [XGTACX_site2024],8.62 ± 0.45
12,TTTTACAATAATAAGTAGATCTAAATAAAGATTTAA [GTGCAC_negctrl_site547],8.33 ± 0.59
13,CATACAAATTAATATGTACACACAAATATATATATA [CACACA_site8605],9.73 ± 0.15
14,AAAAAAAAAAAATAATGTACATATGTATTTGAGAAA [XGTACX_site3572],8.41 ± 0.45
15,TTTTTTTTTTTTTTTTGTACATATTTTAATTTGTTT [XGTACX_site6297],8.05 ± 0.4
16,TTCCAAAATTGCACATGTACAAAATTCTCCAATATG [XGTACX_site3419],8.71 ± 0.33
17,TTTATATTATTTAATGAGAAATAATTATAAACAATT [TGCATGCA_negctrl_site65],8.15 ± 0.51
18,GATATTCATAGAAACACACATACAAATTATGTATAT [CACACA_site144],8.46 ± 0.43
19,GTTAAATAATATATATGTACATACATAAGTGTTACT [XGTACX_site4778],8.64 ± 0.34
20,ATTTCCTTTTGTTTCAGTACATAATTTTTTTTTTTT [XGTACX_site4842],8.88 ± 0.57
21,TTGCCCATTTAATTAACACACAAATATTTATATTCT [CACACA_site738],8.72 ± 0.26
22,TTTTTAAAGTTTTATACACACACCAAAATTATTCTA [CACACA_site600],8.32 ± 0.37

row,Sequence,gcPBM binding intensity (ln)
1,TAATTGTACGCCAATACACACAGAATTAAAATGTAG [CACACA_site4234],8.72 ± 0.42
2,TATGTGCACCCATGTACATGCGGACATATGTTATAT [TGCATGCA_site383],9.35 ± 0.23
3,TATGTATTTAAATTAACACACATATGTGGTTAATAG [CACACA_site5697],8.37 ± 0.37
4,AAAAATTTGGCATACACACACACACCCACACCCACA [CACACA_site587],8.77 ± 0.49
5,ATATATTATATATATTGTACATGTAAAATTTTAAAA [XGTACX_site7197],8.67 ± 0.41
6,ACATATATATATATATATATATATATATCATTATGT [CACACA_negctrl_site724],8.79 ± 0.16
7,ACTCTTGATCTGAATGCACACAATAAATTATATAAA [CACACA_site1438],8.79 ± 0.23
8,AGTATAATAATATTTACACACGCATATGTTATATAT [CACACA_site1476],8.61 ± 0.51
9,ATTTAAAAAAAAAAAACACACATGTGAATAGAAAAG [CACACA_site3323],8.93 ± 0.38
10,AAAACGCTACATAATTGTACATGTAGAAATAAAAGC [XGTACX_site2895],9.2 ± 0.4
11,TCTAAAAATAAGAACACACACATATAAGCATATAAA [CACACA_site2274],8.65 ± 0.37
12,TACTGCCTTCCATACCCACACACTTCCCATATATTT [CACACA_site2705],9.11 ± 0.52
13,AATGTAAAATATAAATGTACATATATATATATATAT [XGTACX_site5071],10.2 ± 0.24
14,AAACAAAATATGGTTCATGAGCAAAAGTTTATTTTG [XGTACX_negctrl_site531],8.69 ± 0.47
15,ATTTATTTATACAAAGTGCAATATTTTGTTAAAGTC [GTGCAC_site9618],8.62 ± 0.014
16,CTCTTTTCTTATAATACACACAGTAATATATATATA [CACACA_site1520],9.54 ± 0.2
17,ATATGAAATATATAAATATGTTTATATATATATATA [GTGCAC_negctrl_site94],10.1 ± 0.33
18,TATAAAATACATTTATAATATATATATATATTTTTT [TGCATGCA_negctrl_site435],8.03 ± 0.42
19,TCATTAAAGGAAAAATGTACGTATAAATAAATATAT [XGTACX_site2587],8.8 ± 0.42
20,TTCAAAAAATAAAATAATAATATATATATAAATATA [XGTACX_negctrl_site84],8.12 ± 0.36
21,TTTACATCAACCTTTTCACACATTCATATACAGATA [CACACA_site6152],8.74 ± 0.49
22,TGTGTTTATACGTTTTGTACATATTTTTATTTTGTA [XGTACX_site6425],8.85 ± 0.24

# Reference: the supplement of paper PMC11417369
